Source: the supplement of paper PMC12889115
Some of the results follow. No stated cut-off is given here; in the data, active = 25% or less and inactive = the rest. Most values come without repeats; read them as rough.

Assays:
[1] = system: Salmonella enterica serovar Typhimurium SL1344; assay: bacterial growth OD600 after 18 h in MHB with 0.5 µg/mL polymyxin B; higher = more bacterial growth (less inhibition); settings: 25 µM; polymyxin B 0.5 µg/mL; system: broth
Protocol: (§1)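 Secondary screen of the 553 primary hits at 25 µM. (i) S. Typhimurium SL1344 grown in Mueller-Hinton broth with 0.5 µg/mL polymyxin B, OD600 read after 18 h. (ii) SAFIRE assay: RAW 264.7 macrophages infected with S. Typhimurium sifB::gfp (MOI 30); compound added 2 h post-infection; cells fixed at 18 h; GFP-positive pixel fraction per macrophage imaged by confocal microscopy and expressed as % of DMSO control.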

[2] = system: Salmonella enterica serovar Typhimurium SL1344; assay: intramacrophage bacterial GFP load (SAFIRE), percent of DMSO control (% of DMSO); higher = more intracellular bacteria (less inhibition); settings: 25 µM; system: infected RAW 264.7 macrophages
Protocol: as §1
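Wherever bacterial growth OD600 after 18 h in MHB with 0.5 µg/mL polymyxin B is given: polymyxin B level opens the outer membrane while sparing the inner membrane, with novobiocin wells as reference growth inhibitor.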
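Wherever intramacrophage bacterial GFP load (SAFIRE), percent of DMSO control is given: compounds tested were the hits of an earlier 50 µM broth growth screen of a drug-like diversity library run with polymyxin B.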

Compound | bacterial growth OD600 [1] | intramacrophage bacterial GFP load [2]
COc1ccccc1CNC(=O)c1c(OC)cc(=O)n2c1CCN(CC1=CC[C@H]3C[C@@H]1C3(C)C)CC2 | 0.011 | inactive: 114
COc1cc(OC)c(CN2CCCC(C(=O)c3cccc(Cl)c3)C2)c(OC)c1 (stereo unspecified) | 0.006 | active: 2.43
CN(C(=O)c1cc(NS(C)(=O)=O)cc2ncn(CCc3ccccc3)c12)C(C1CC1)C1CC1 | 0.005 | inactive: 162
Cc1ccc(C)c(S(=O)(=O)N2CCCC(CO)(Cc3cccc(Cl)c3)C2)c1 (stereo unspecified) | -0.005 | inactive: 95.2
COc1cccc(OCC2CCCN(C(=O)CCC3(Cc4ccccc4)CCC(=O)N3)C2)c1 (stereo unspecified) | 0.008 | inactive: 72.8
O=C(CCC1(Cc2ccc(Cl)cc2)CCC(=O)N1)NCc1ccc(C(F)(F)F)cc1 (stereo unspecified) | 0.004 | inactive: 38.4
Cc1cnccc1CNC(=O)C1(N(C)CCc2ccccc2)Cc2ccccc2C1 | 0.001 | inactive: 36.7
O=C(NC1(c2ccccc2)CC1)c1cc(COc2ccc(F)c(F)c2)on1 | 0.003 | inactive: 209
COc1ccc(-c2nc(CN(Cc3ccccc3)C[C@@H]3CCC(=O)N3)c(C)o2)cc1C | -0.008 | inactive: 47.4
CCS(=O)(=O)c1ncc(CN2CCCC(C)C2)n1CCCc1ccccc1 (stereo unspecified) | 0.004 | inactive: 27.1
Cc1ccc(S(=O)(=O)N2CCC(CO)(Cc3cccc(C(F)(F)F)c3)CC2)s1 | 0.002 | inactive: 123
COc1ccc(C2CCN(Cc3ccc(Sc4nncn4C)o3)c3ccccc3S2)cc1C (stereo unspecified) | 0.001 | inactive: 67.4
COc1cc(C)ccc1OCc1nc(C(=O)N2CC[C@@H]3CCCC[C@H]3C2)co1 | 0.006 | inactive: 46.2
